Reference: PubChem BioAssay AID1508642 (National Center for Advancing Translational Sciences (NCATS), 2021)
Hit rate of the full screen: of about 43,000 compounds, about 200 (0.47%) were called active. Another 12% or so got no clear call; they are omitted. Calls come from the whole dose curve; as a rule, active = well fitted cell-killing curve with a large enough effect; inconclusive = small, poorly fitted or top-dose-only effect, or effect the other way; inactive = flat fitted curve, though single readings scatter. The list shows a part of the results.

Test: Cell viability qHTS assay in S16 Pmp22-F2sN cells; note: nearly all actives have a fitted effect of over 65% in size
Conditions: S16 Pmp22-F2sN Schwann cells viability, CellTiter-Glo, 24 h; series mostly up to 57.5 µM; activity change, negative = cytotoxicity: at the top concentration
How it was run: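 S16 Pmp22-F2sN Schwann cells (500-1,000/well) in phenol-red-free DMEM with 10% FBS received 23 nL compound by pin tool for 24 h at 37 °C. Viability was then read as CellTiter-Glo luminescence after 15 min at room temperature.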
% is set by controls: 0 for no effect and ±100 for the full control effect.

| Structure (SMILES) | activity change, negative = cytotoxicity |
| --- | --- |
| Cc1ccccc1OCc1nnc(SCc2cc(=O)c3cccc(F)c3[nH]2)n1C | inactive: -5.5% |
| COCCCNC(=O)CSc1nc2c(sc3ccccc32)c(=O)n1CCCC(=O)NCCOC | inactive: -0.52% |
| CCOc1ccc(CCNC(=O)CCSCc2ccc(Cl)cc2)cc1OCC | inactive: 2.14% |
| CC(C)Oc1ccc(CNC(=O)c2cccc(NC(=O)N3CCSc4ncccc43)c2)cc1 | inactive: -11.6% |
| Cc1cccc(Cc2c(C)nc3nc(SCC(=O)NCc4ccccc4)nn3c2C)c1 | inactive: -5.95% |
| CCC(=O)N1CCc2cc(Br)cc(S(=O)(=O)N3CCCC(C(=O)Nc4cccc(F)c4)C3)c21 (stereo not given) | inactive: 7.46% |
| CCOc1ccc(NC(=O)c2oc3ccccc3c2NC(=O)c2cc(C)cc(C)c2)cc1 | inactive: 15.6% |
| COc1ccc(CCNC(=O)Cn2ncc3c(=O)oc4ccccc4c32)c(OC)c1 | inactive: 15.5% |
| COc1ccc(CC(=O)NCc2ccc3c(c2)CCN3C(=O)c2ccc(Cl)cc2)cc1 | inactive: -0.125% |
| CCc1ccc2oc(-c3cc(NC(=O)c4cccnc4)cc(C)c3O)nc2c1 | inactive: 12.3% |
| CCOC(=O)c1sc(NC(=O)c2cc3nc(-c4ccccc4)cc(C(F)(F)F)n3n2)c(C(=O)OCC)c1C | inactive: 2.92% |
| Cc1cc(C)cc(Oc2c(C(F)(F)F)oc3cc(OCC(=O)NC4CCCCC4)ccc3c2=O)c1 | inactive: 2.11% |
| CCOC(=O)c1cc(-c2ccccc2)n(-c2cccc(C(=O)Nc3cc(OC)cc(OC)c3)c2)c1C | inactive: -8.36% |
| O=C(Nc1cccc(Br)c1)N1CCC(CN2CCCCCC2)CC1 | inactive: 6.86% |
| COc1cccc(CNC(=O)CN(c2ccc(C(C)C)cc2)S(=O)(=O)c2c(C)noc2C)c1 | inactive: 3.69% |
| CCC(C)NC(=O)CCSc1nc(-c2ccc(OC)cc2)cc(C(F)(F)F)n1 (stereo not given) | inactive: 15.5% |
| O=C(O)c1cccc(Nc2ncnc3scc(-c4ccccc4)c23)c1 | inactive: 3.59% |
| O=C(NCc1ccc(F)cc1)c1cc(-c2ccc(Cl)cc2)n[nH]1 | inactive: -1.26% |
| Cc1ccccc1C(=O)Oc1c(Sc2ccccc2)c(C)nn1C(C)(C)C | inactive: -12.5% |
| Cc1ccc(C(=O)Nc2nnc(S(=O)(=O)N3CCc4ccccc43)s2)cc1 | inactive: -4.27% |
| COc1ccc(NC(=O)c2cc(CN3CCCC3)on2)cc1Cl | inactive: -0.439% |
| CCCCNC(=O)C1CCC(CNS(=O)(=O)c2ccc(Cl)cc2)CC1 (stereo not given) | inactive: 13.4% |
| CCCCOc1cccc(C(=O)N(Cc2cccs2)c2ccc(OC)cc2)c1 | inactive: -23.2% |
| CC(=O)NCCn1c(SCC(=O)Nc2ccc(C)cc2)nc2ccccc2c1=O | inactive: -12.5% |

| Structure (SMILES) | activity change, negative = cytotoxicity |
| --- | --- |
| CC(C)(C)c1ccc(-c2nc(SCC(=O)Nc3ccc(Cl)cc3)[nH]c(=O)c2C#N)cc1 | inactive: 6.15% |
| COc1ccc(N2CC(NC(=O)c3ccc(S(=O)(=O)N4CCOCC4)cc3)CC2=O)cc1OC (stereo not given) | inactive: 6.55% |
| CCc1cnc2c(c1SCC(=O)c1ccc(OC)cc1)c(=O)n(C)c(=O)n2C | inactive: -8.81% |
| COc1ccccc1CNC(=O)CC(c1ccc(OC)c(OC)c1)N1Cc2ccccc2C1=O (stereo not given) | inactive: -0.103% |
| CCCCN(CCCC)C(=O)C1CCN(S(=O)(=O)c2cccc3nsnc23)CC1 | inactive: 10.9% |
| CCN(Cc1ccccc1)c1ncnc2c1nnn2C | inactive: -11.5% |
| COc1ccc(OC)c(/C=C/C(=O)Nc2ccc(C(=O)OCCC(C)C)cc2)c1 | inactive: 11.4% |
| Cc1ccccc1CN1C(=O)c2ccccc2Sc2ccc(C(=O)NC3CCCC3)cc21 | inactive: -5.91% |
| COc1cccc(-n2c(-c3cccc(F)c3)nc3c(cnn3-c3ccc(C)cc3)c2=O)c1 | inactive: 10.1% |
| COc1ccc(N2CCN(c3oc(-c4ccc(COc5cccc(C)c5)o4)nc3C#N)CC2)cc1 | inactive: -6.77% |
| Cc1ccc(NC(=O)CN(C)S(=O)(=O)c2ccc3[nH]c4c(c3c2)CCCC4)c(Cl)c1 | inactive: -2.33% |
| COc1ccc(CC(=O)NCCc2csc3nc(-c4ccccc4F)nn23)cc1 | inactive: 13.4% |
| CCCN(C(=O)CCc1nc(-c2ccc(OC)cc2)no1)c1ccccc1F | inactive: 0.0244% |
| CSc1ncc(C(=O)N2CCN(c3cc(Cl)ccc3C)CC2)c(C)n1 | inactive: 4.02% |
| Cc1oc(-c2ccccc2F)nc1CS(=O)(=O)CC(=O)NCCc1ccc(Cl)cc1 | inactive: 13.7% |
| COc1cc(-c2nc(Cn3nnc(C(=O)Nc4ccc(C)cc4C)c3C)c(C)o2)cc(OC)c1OC | inactive: 19.1% |
| CCN(CCCNC(=O)c1cc2c(Cl)nc3ccccc3c2s1)Cc1ccccc1 | inactive: -26.4% |
| Cc1ccc(C)c2sc(N3CCN(C(=O)C(C)(C)C)CC3)nc12 | inactive: -0.583% |
| CC1=C(C(=O)Nc2ccc(C)cc2Cl)C2(CCCCCC2)OC1=O | inactive: -6.37% |
| CCC(=O)c1cc2c(cc1NC(=O)c1ccccc1F)OCCO2 | inactive: 9.85% |
| CCOc1ccc(CCNC(=O)c2ccc(-n3c(C)cc4c3CCC(C)C4)cc2)cc1OCC (stereo not given) | inactive: -0.279% |
| COc1ccc(NC(=O)Cn2ncc3c2-c2ccccc2OC3)cc1Cl | inactive: -2.53% |
| COc1ccccc1C(=O)Nc1ccc(OCc2cc(=O)n3ccsc3n2)cc1 | inactive: 19.1% |
| O=C(CSc1nc2c([nH]c3ccccc32)c(=O)n1-c1ccccc1)Nc1ccc2c(c1)OCCO2 | inactive: -16.7% |

| Structure (SMILES) | activity change, negative = cytotoxicity |
| --- | --- |
| Cc1ccc(-c2noc(-c3ccccc3NC(=O)C3CC(=O)N(c4ccccc4C)C3)n2)cc1 (stereo not given) | inactive: 13.5% |
| O=C(NCCc1nc2ccccc2n1Cc1ccc(Cl)cc1Cl)c1ccco1 | inactive: 5.18% |
| CCn1ccc2c(OCC(=O)NCc3ccc(F)cc3)cccc2c1=O | inactive: 4.21% |
| N#Cc1ccc(C(=O)Nc2ccc3c(c2)N(C2CCCC2)C(=O)c2ccccc2S3)cc1 | inactive: -14.8% |
| CC(C)Sc1ncc(Cl)c(C(=O)N(Cc2ccc(N(C)C)cc2)C2CCS(=O)(=O)C2)n1 (stereo not given) | inactive: -3.72% |
| CCc1nn(CC(=O)Nc2ccc(N(CC)CC)cc2C)c(=O)c2cc3sccc3n12 | inactive: 10.4% |
| CCOc1ccc(C2C(C(=O)Nc3ccccc3)=C(C)Nc3nc(SCc4cc(C)ccc4C)nn32)cc1 (stereo not given) | inactive: 7.33% |
| Cc1cc(C)c2nc(N(Cc3cccnc3)C(=O)c3cccs3)sc2c1 | inactive: -27.6% |
| CC(C)Cn1c(=O)c2ccccc2n2c(CCC(=O)NC(C)c3ccccc3)nnc12 (stereo not given) | inactive: 12.8% |
| CN(C)c1ccc(/C=C(\C#N)c2nc(-c3ccc(Cl)c(Cl)c3)cs2)cc1 | inactive: 3.58% |
| COc1cc(NC(=O)COCc2cc(-c3ccc4c(c3)OCO4)on2)cc(OC)c1 | inactive: 27% |
| CCN(CC)C(=O)c1sc2c(c1C)c(=O)n(-c1ccc(OC)cc1OC)c(=O)n2CC(=O)c1ccc(Cl)cc1 | inactive: -2.87% |
| CCn1cc(S(=O)(=O)c2ccccc2)c(=O)c2cc(F)c(N3CCN(c4ccccc4)CC3)cc21 | inactive: -14.7% |
| COc1cc(NC(=O)c2oc3c(c2C)-c2nn(Cc4cccc(Cl)c4)cc2CC3)cc(OC)c1 | inactive: 15% |
| Cc1ccc(-n2c(=O)c3c(cnn3C)n(Cc3ccccc3F)c2=O)cc1 | inactive: 0.462% |
| Cn1c2ccccc2c2cnn(CC(=O)Nc3ccccc3C(F)(F)F)c(=O)c21 | inactive: 11.8% |
| O=C(C1CCN(S(=O)(=O)c2ccc(Br)s2)CC1)N1CCN(c2ccccc2)CC1 | inactive: 1.3% |
| CCc1ccc(-c2nn(CC(=O)NCc3ccccc3)c3c2cnc2ccc(F)cc23)cc1 | inactive: -3.11% |
| COc1ccc(OCC(=O)NCc2ccc3c(c2)CCN3C(=O)c2ccc(F)cc2)cc1 | inactive: -15.4% |
| COc1ccc(CCN2C(=O)NC(NS(=O)(=O)c3ccc(NC(C)=O)cc3)(C(F)(F)F)C2=O)cc1OC (stereo not given) | inactive: 1.73% |
| CC(=O)Nc1ccc2nc(SCCOc3cc(C)cc(C)c3)sc2c1 | inactive: -20.2% |
| COC(=O)c1ccc(OCC2c3cc(OC)c(OC)cc3CCN2C(=O)Cc2ccccc2)cc1 (stereo not given) | inactive: 7.83% |
| Cn1cnnc1SCC(=O)Nc1ccc(C#N)cc1 | inactive: 2.43% |
| CN(CC(=O)NCc1ccccc1)S(=O)(=O)c1ccc2[nH]c3c(c2c1)CCCC3 | inactive: 2.75% |

| Structure (SMILES) | activity change, negative = cytotoxicity |
| --- | --- |
| COc1ccc(-c2[nH]c(-c3cccc(OC)c3)nc2SCC(=O)NC2CCCC2)cc1 | inactive: -10.3% |
| CC(C)(C)C1CCc2c(sc(NC(=O)c3ccc(Cl)cc3)c2C(=O)NCc2ccco2)C1 (stereo not given) | inactive: 16.2% |
| COc1ccccc1N1CCN(c2ncnc3c2cnn3-c2cccc(Cl)c2)CC1 | inactive: 14.8% |
| COc1ccc(-c2cn3nc(N4CCCC(C(=O)Nc5cc(C)cc(C)c5)C4)sc3n2)cc1 (stereo not given) | inactive: 13.6% |
| CCc1ccccc1NC(=O)C1(C)Cc2ccccc2C(=O)O1 (stereo not given) | inactive: 14.6% |
| CCOC(=O)CSc1nc2ccc(NC(=O)c3ccc(Cl)cc3)cc2s1 | inactive: 7.59% |
| COc1cccc(-c2nc(CS(=O)(=O)CC(=O)Nc3cccc(C(C)=O)c3)c(C)o2)c1 | inactive: -19.6% |
| COC(=O)c1ccc(NC(=O)C2CCN(c3ncnc4c3nc3n4CCCCC3)CC2)cc1 | inactive: 3.18% |
| COc1ccc(CCNc2ncnc3c2c(-c2ccccc2)cn3-c2ccc(Cl)cc2)cc1OC | inactive: -21% |
| CCOC(=O)c1ccccc1NC(=O)CSc1nnc(CC)n2c1cc1occc12 | inactive: -2.04% |
| COc1ccc(C)cc1NC(=O)c1cc(S(=O)(=O)N2CCC(C)CC2)ccc1F | inactive: 10.4% |
| Fc1ccc(-c2cc3ncc4c(n3n2)-c2cc(Cl)ccc2OC4)cc1 | inactive: -0.435% |
| Cc1cc(C)cc(NC(=O)CSc2c(C(C)C)cnc3c2c(=O)n(C)c(=O)n3C)c1 | inactive: -3.38% |
| Cc1cc(C)cc(Nc2cc(C(=O)NC3CCCCC3)c3ccccc3n2)c1 | inactive: 12.8% |
| Cc1oc(-c2ccccc2F)nc1Cn1c(SCc2cccc(C(F)(F)F)c2)nc2ccncc21 | inactive: 23% |
| CCc1ccccc1NC(=O)c1cc(-c2ccc(Cl)s2)nc2ccccc12 | inactive: -24.5% |
| O=C(Nc1ccccc1F)c1cnc(N2CCCCC2)c2ccccc12 | inactive: 2.06% |
| CCOc1ccccc1NC(=O)Cn1c(=O)n(Cc2ccc(OC)cc2)c(=O)c2oc3ccccc3c21 | inactive: 13.2% |
| COc1ccc(OC)c(CNC(=O)CCCn2c(=O)c3cccn3c3cccnc32)c1 | inactive: 4.87% |
| Cc1cccc(-n2c(C)cc(C(=O)C(=O)Nc3nncs3)c2C)c1 | inactive: -0.995% |
| COc1ccccc1-c1nnc(C2CCN(C(=O)c3ccccc3C)CC2)o1 | inactive: 3.71% |
| COc1ccc(N(CC(=O)Nc2cc(OC)cc(OC)c2)S(=O)(=O)c2c(C)noc2C)cc1 | inactive: -20.4% |
| Cc1cc2c(cc1S(=O)(=O)Nc1ccc(C(C)C)cc1)OCCN2C | inactive: -1.02% |
